# In all, about 43,000 compounds went through this assay and about 200 (0.47%) were called active. Roughly 12% stayed inconclusive and do not appear here. The call rests on the fitted dose curve; in most records, active means well fitted cell-killing curve with a large enough effect; inconclusive means small, poorly fitted or top-dose-only effect, or effect the other way; inactive means flat fitted curve, though single readings scatter. This is one part of the list.
# Assay: Cell viability qHTS assay in S16 Pmp22-F2sN cells; further: nearly all actives have a fitted effect of over 65% in size
# Details: S16 Pmp22-F2sN Schwann cells (luciferase reporters placed in the Pmp22 gene) viability, CellTiter-Glo, 24 h; series mostly up to 57.5 µM; activity change, negative = cytotoxicity: at the top concentration
# Method in brief: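 Rat S16 Schwann reporter line, 24 h treatment with library compounds delivered at 23 nL per well. Cell viability by CellTiter-Glo luminescence.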
# On the % scale 0 is the no-effect control and ±100 the full control effect.
row,SMILES,"activity change, negative = cytotoxicity"
1,Cc1cc(Br)cc2c(C(=O)OCC(=O)c3ccccc3)cc(-c3ccccc3)nc12,inactive: 4.8%
2,Cc1c(-c2nnc(SCC(=O)Nc3ccc(Cl)cc3)o2)nnn1-c1ccc(F)cc1,inactive: 7.19%
3,CCN(Cc1ccccc1)S(=O)(=O)c1ccc(F)c(C(=O)Nc2cc(C(F)(F)F)ccc2Cl)c1,inactive: -0.123%
4,COc1ccc(N2C(=O)CSC23C(=O)N(CC(N)=O)c2ccccc23)cc1 (configuration not stated),inactive: 5.7%
5,COC(=O)Cc1c(C)nc2nc(-c3ccc(C)cc3)[nH]n2c1=O,inactive: 0.23%
6,CCOc1cccc2sc(NC(=O)CS(=O)(=O)c3ccc(C)cc3)nc12,inactive: 25.5%
7,COc1ccc(-n2c(=O)c3sc4ccccc4c3n(CC(=O)NC3CCCCC3)c2=O)cc1,inactive: -8.4%
8,CC(C)c1ccc(N2C(=O)N(Cc3ccccc3Cl)c3ccccc3S2(=O)=O)cc1,inactive: 3.39%
9,COc1cccc(NC(=O)CCNC(=O)Cn2cnc3ccccc3c2=O)c1,inactive: 2.97%
10,CCn1c2ccccc2c2cc(CN3CCN(Cc4cccc(Cl)c4)CC3)ccc21,inactive: -11.6%
11,COc1cc(C(CC(=O)NCc2ccccc2Cl)N2Cc3ccccc3C2=O)cc(OC)c1OC (configuration not stated),inactive: 2.58%
12,CCOc1ccccc1CNC(=O)c1ccc(-n2c(C)cc3c2CCC(C)C3)cc1 (configuration not stated),inactive: -25.3%
13,COC(=O)c1ccccc1NC(=O)CCCn1nc(C)c2c(C)n(-c3ccccc3)nc2c1=O,inactive: -2.14%
14,Cc1ccc(-c2onc(C)c2C)cc1S(=O)(=O)N1CCN(c2ccccc2F)CC1,inactive: 6.52%
15,COc1cc(OC)cc(-n2c(=O)c3sccc3n(Cc3ccc(F)cc3)c2=O)c1,inactive: 19.3%
16,COC(=O)c1sc(N2C(=O)c3oc4ccc(C)cc4c(=O)c3C2c2ccc(OC)cc2)nc1C (configuration not stated),inactive: -6.3%
17,CCCOc1ccc(Oc2nc(NC)nc(N3CCOCC3)n2)nn1,inactive: -9.57%
18,Cc1cc(Cl)ccc1NC(=O)CSc1nc2c(c(=O)[nH]1)CCC2,inactive: -12%
19,Cc1ccc(NC(=O)C(=O)NCC(c2cccnc2)N2CCN(Cc3ccccc3)CC2)cc1Cl (configuration not stated),inactive: -14.2%
20,Cc1ccc(C(=O)O)cc1NC(=O)c1nsc2ccccc12,inactive: 8.25%
21,Cc1ccc(Cl)cc1N1CCN(c2nc3ccccc3c3nc(-c4cccnc4)nn23)CC1,inactive: 11.7%
22,COc1ccc(CCNC(=O)CN2C(=O)COc3ccc(S(=O)(=O)N4CCCC4)cc32)cc1OC,inactive: 13.4%
23,Cc1ccc(CNC(=O)c2cc(-c3ccc(C)c(C)c3)nc3ccccc23)cc1,inactive: -18.2%
24,CCCNC(=O)CCc1c(C)nc2nc(CNC(=O)c3ccccc3)nn2c1C,inactive: -0.369%

row,SMILES,"activity change, negative = cytotoxicity"
1,CCOC(=O)c1ccc(NC(=O)CS(=O)(=O)Cc2nc(-c3ccc(C)cc3)oc2C)cc1,inactive: -6.33%
2,Cc1ccc(NC(=O)CN2C(=O)CC(c3ccco3)Sc3ccccc32)cc1Cl (configuration not stated),inactive: 22.5%
3,COc1ccc(NC(=O)c2oc3ccccc3c2NC(=O)c2cc3ccccc3o2)c(OC)c1,inactive: -0.792%
4,Cc1ccc(F)cc1NC(=O)CSc1nc(-c2cccs2)cc(C(F)(F)F)n1,inactive: -0.0291%
5,CC(=O)NNc1ncnc2c1cnn2-c1ccccc1,inactive: -0.628%
6,Cc1ccccc1OCC(=O)Nc1c(C(=O)Nc2ccccc2F)oc2ccccc12,inactive: 7.24%
7,COC(=O)c1cnc(N2CCN(c3ccc(OC)cc3)CC2)c2ccccc12,inactive: -1.79%
8,Cc1ccccc1NS(=O)(=O)c1ccc2[nH]cc(C(=O)NCCc3ccccc3)c(=O)c2c1,inactive: -1.55%
9,COc1ccc(CNC(=O)Cn2c(=O)n3nc(-c4ccc(OC)cc4)nc3c3ccccc32)cc1,inactive: 8.55%
10,CCOc1ccc(C(=O)Nc2ccc3nc(Nc4cccc(C(F)(F)F)c4)cc(C)c3c2)cc1OCC,inactive: 18.1%
11,COc1ccc(-c2c(C)nn3c(C(F)(F)F)cc(-c4ccc(C)cc4)nc23)cc1,inactive: 4.25%
12,COc1ccc(-c2noc(CSc3nnc(C)n3-c3ccc(F)cc3)n2)cc1,inactive: -9.98%
13,COc1ccc(NC(=O)C(c2ccccc2)N(C)C(=O)/C=C\c2ccc3c(c2)OCO3)cc1 (configuration not stated),inactive: 0.0571%
14,Cc1cccc(C2=Nc3ccccc3N=C(c3cc(Cl)ccc3O)C2)c1,inactive: -1.78%
15,Cc1oc2c(cc(NS(=O)(=O)c3ccc(C(C)C)cc3)c3ccccc32)c1C(=O)OCc1ccccc1,inactive: -14.9%
16,N#C/C(=C\c1ccc(OCc2ccc(Cl)cc2Cl)cc1)c1nc2ccccc2[nH]1,inactive: 0.143%
17,COc1ccc(NC(=O)c2cnn(-c3ccc(C)c(C)c3)c2C2CCNCC2)cc1OC,inactive: 0.727%
18,CCOc1ccc(-n2c(C)nc3cc(C(=O)NC4CCCC4)ccc32)cc1,inactive: 0.431%
19,COc1ccc(OC)c(CNC(=O)c2cc3c(Cl)nc4ccccc4c3s2)c1,inactive: 20.9%
20,Cc1cccc(NC(=O)/C(C#N)=C/c2ccco2)c1,inactive: -6.98%
21,CCCNC(=O)Cn1nc(-c2ccc(OC)cc2)c2cnc3ccc(F)cc3c21,inactive: 6.1%
22,CCC1CCCCN1C(=O)c1c[nH]c2ccc(S(=O)(=O)Nc3cccc(OC)c3)cc2c1=O (configuration not stated),inactive: 2.17%
23,Cc1cc(C)cc(-n2ccn(CC(=O)c3ccc(F)cc3)c(=O)c2=O)c1,inactive: -1.34%
